Source: the supplement of paper PMC3334620
The full ranking holds about 33,000 sequences; the median of “E-score (-0.5 to 0.5)” is about -0.035, and the highest 2% start at about 0.34. Some of the results follow.

target: T1, Mot3 (UniProt P54785); test: PBM E-score (8-mer binding enrichment) (E-score (-0.5 to 0.5)); higher = stronger / more preferred TF binding; most listed sequences are background and not binding sites; conditions: protein concentration: 200 nM; construct: GST-full length
T1 sequence: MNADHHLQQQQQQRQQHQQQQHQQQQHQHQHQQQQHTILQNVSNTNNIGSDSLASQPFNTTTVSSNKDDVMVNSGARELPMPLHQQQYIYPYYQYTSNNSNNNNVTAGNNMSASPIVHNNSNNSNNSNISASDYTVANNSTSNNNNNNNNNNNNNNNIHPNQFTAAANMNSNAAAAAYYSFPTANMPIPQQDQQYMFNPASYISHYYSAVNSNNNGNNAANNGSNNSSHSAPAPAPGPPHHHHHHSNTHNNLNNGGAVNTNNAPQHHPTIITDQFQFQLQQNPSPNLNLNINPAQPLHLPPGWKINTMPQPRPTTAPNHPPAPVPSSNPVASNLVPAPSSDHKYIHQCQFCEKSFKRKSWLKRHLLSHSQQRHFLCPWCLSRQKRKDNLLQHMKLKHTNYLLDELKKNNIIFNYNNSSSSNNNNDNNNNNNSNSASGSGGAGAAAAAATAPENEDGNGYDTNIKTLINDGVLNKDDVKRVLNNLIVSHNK
In short: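 Each ungapped eight-base word and its reverse complement, pooled, received an E-score from the Universal PBM Analysis Suite. Underlying scans, normalised with masliner, recorded fluorescent anti-GST bound to GST-tagged yeast transcription factors. These were applied at about 100-200 nM to universal all-10-mer Agilent arrays double-stranded by primer extension.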

| Sequence | PBM E-score |
| --- | --- |
| ATACCTAA | 0.071 |
| TATAAATA | 0.155 |
| GGGTTTAC | 0.128 |
| AGTGCCAA | -0.0129 |
| GGATGGCC | -0.279 |
| CTGAGACC | -0.0491 |
| GATCTCAA | -0.00924 |
| ACTGGCAC | -0.21 |
| AGCGAGTA | 0.115 |
| CCTAGAAC | -0.0307 |
| AAAACCAG | -0.0387 |
| ATGGAATA | -0.0532 |
| CCTATCTA | 0.0646 |
| AATACCCC | -0.248 |
| ATTTGATC | -0.242 |
| CGCCTCAG | -0.208 |
| GATTGGAC | -0.0906 |
| ATCCGTCG | -0.153 |
| TAATCCCA | 0.0453 |
| ACCCATTG | -0.196 |
| ACGTTGCC | 0.323 |
| GCAACCAC | -0.0253 |
| CTGGTCTC | -0.241 |
| GAACTGAC | -0.0216 |
| AGTTGGAG | -0.276 |

| Sequence | PBM E-score |
| --- | --- |
| CCACTAAA | -0.107 |
| ACAACGCA | 0.209 |
| AATATCTC | -0.157 |
| ACTCATTA | 0.0966 |
| ACAGAGCA | 0.115 |
| GTCCTCGA | -0.0132 |
| ATATTGCG | -0.182 |
| ACGGTGAT | -0.125 |
| AGCAACAA | 0.0896 |
| CAACGCGC | 0.245 |
| AGGAGGGA | -0.144 |
| GTTTCAAA | 0.0317 |
| AGGTCGCA | -0.26 |
| ACATACTC | 0.0698 |
| AATGTAGC | -0.121 |
| ACGGCAGC | 0.119 |
| CGTAGTGA | 0.0533 |
| AGATAAAT | 0.0522 |
| GACACCAC | -0.184 |
| ATTTTGCC | 0.257 |
| ATTGGGTG | -0.18 |
| ACAGAGAT | 0.0802 |
| CACGCACG | 0.15 |
| GTCCGGAA | -0.0613 |
| ACTAGGCA | 0.425 |

| Sequence | PBM E-score |
| --- | --- |
| ACCGTGGG | -0.203 |
| TGCAGTAA | 0.0245 |
| CATCGTGG | -0.216 |
| AACACCGC | 0.0465 |
| AAAATCAA | 0.0822 |
| CCACCTGA | -0.252 |
| GGAACGCC | 0.104 |
| ACGGCCTG | -0.251 |
| ATTTGCAA | 0.0602 |
| AGTTCGGA | -0.0713 |
| ATCACTAC | -0.00093 |
| TGTCTTAA | 0.123 |
| TAAAGAGA | 0.058 |
| GTCACTCA | -0.119 |
| CAGGCGGA | -0.112 |
| CAGCGATC | -0.188 |
| TGATAACA | 0.22 |
| GCAGCTCA | -0.304 |
| ACTGCGTG | -0.0888 |
| GCAATCTA | 0.0532 |
| CGGATCGC | -0.196 |
| GGACGGCA | 0.0337 |
| GTGTGACA | -0.00677 |
| CGTGGCCA | -0.267 |
| AATGCGCC | -0.0696 |

| Sequence | PBM E-score |
| --- | --- |
| CCATTTTA | 0.18 |
| GGAAGGCA | 0.482 |
| ATAGTAGC | -0.196 |
| ATTTCTCC | -0.213 |
| AACTTTCT | -0.131 |
| AAGGTGCC | 0.334 |
| ATCGCCGC | -0.13 |
| GTCCGCGA | -0.275 |
| CTGCAGCC | -0.223 |
| CGACCACG | -0.112 |
| GAGAATGA | -0.0118 |
| ACGGCTTC | -0.114 |
| GGCCTCCA | -0.181 |
| GTTGATAA | 0.25 |
| ATCGAGTG | 0.0548 |
| ACTTGCCG | -0.189 |
| GGAGCACC | -0.269 |
| AAGCTGAA | -0.129 |
| ATCAGGAC | -0.157 |
| AGGTTTCG | -0.122 |
| CTGACAAC | -0.0187 |
| AGTATGGC | -0.156 |
| ATTTAGTG | 0.0618 |
| CCTTAACA | 0.315 |
| AGGGGATA | -0.262 |

| Sequence | PBM E-score |
| --- | --- |
| CCGCAATC | -0.0394 |
| AGAGTCTC | -0.348 |
| CGTAAACG | 0.217 |
| CTTGGGAC | -0.221 |
| ATAGCACA | -0.0461 |
| ACGGTTAC | 0.0985 |
| AGGTGTAT | 0.0665 |
| ATGATATA | 0.0727 |
| CTACTCCC | -0.109 |
| ATACAAAT | 0.118 |
| CGATGAAG | -0.0712 |
| AAGCATCG | -0.0126 |
| ACCGATCT | -0.153 |
| ATCTTCCG | -0.0782 |
| ACTGTTGG | -0.221 |
| ATTTCTTA | 0.0956 |
| GCCCCCGA | -0.326 |
| AGACGAAT | -0.044 |
| TAATAGCA | 0.114 |
| CAAATATG | 0.0836 |
| CTAACCAG | 0.114 |
| AAGACGAA | 0.0821 |
| ATCTCTCC | -0.133 |
| TAATGCAA | 0.211 |
| CCCTTTAG | -0.102 |

| Sequence | PBM E-score |
| --- | --- |
| CTACTAGA | -0.0908 |
| CCGTAGGA | -0.159 |
| CAGCGCTG | -0.025 |
| AAACAGGA | 0.291 |
| GCCAACGC | 0.0136 |
| GATCAATC | -0.103 |
| CGGGTTGC | -0.0651 |
| GACCGCCC | -0.29 |
| ACCGTTTC | 0.0747 |
| CTACCGTA | -0.0264 |
| AAGTCTGT | 0.137 |
| CCGACAGC | -0.256 |
| AAATAAAC | 0.0227 |
| ATACGAAG | -0.0096 |
| GATCACCA | -0.17 |
| ACGCAACA | 0.242 |
| CACCAGCA | -0.165 |
| CTCAGCAC | 0.0464 |
| ACATCCGT | 0.0788 |
| ATGGCTGG | -0.14 |
| ATCAAGGC | 0.261 |
| CCGGGGTC | -0.135 |
| CCTTCGCA | 0.0464 |
| TACGCGTA | 0.291 |
| GTGGAGAA | -0.274 |

| Sequence | PBM E-score |
| --- | --- |
| GTGATGCA | 0.0593 |
| GCTACCTA | 0.0719 |
| ACTACGAA | 0.0106 |
| GTTCCCTA | 0.179 |
| AAACGGCC | -0.0862 |
| CCTGGAAA | 0.154 |
| CGGGTTGA | -0.197 |
| ACAAAAGA | 0.166 |
| CTTCGTCC | -0.145 |
| GAGCGGTA | -0.0867 |
| CACGATGC | -0.0778 |
| AACCATCT | -0.143 |
| AGTTTAGG | 0.0655 |
| TAAAGCGA | 0.1 |
| ATGGGTAC | 0.0147 |
| AACGTCCG | -0.0926 |
| GATCACTA | -0.191 |
| CGATAATA | -0.0766 |
| TAAATTTA | 0.154 |
| TCTTGTCA | 0.0425 |
| CGTCCGTC | -0.357 |
| AGTCCGCA | -0.0253 |
